One may read the koff as the first-order rate constant of dissociation.

koff and R50% (affinity constant) data for one substance are collected here from US20180043012A1.

Experiment [1] addresses mouse MGL2 (CLEC10A orthologous mouse receptor protein) (mouse). As to the kind of experiment: SPR, MGL2 immobilized on CM3 chip, fit of the dissociation phase alone. (In general: Surface plasmon resonance follows binding to a sensor surface in real time, without labels.)
For experiment [2], the target named is T1, mouse MGL1 (CLEC10A orthologous mouse receptor protein) (mouse) (UniProt P49300).
T1 sequence (looked up): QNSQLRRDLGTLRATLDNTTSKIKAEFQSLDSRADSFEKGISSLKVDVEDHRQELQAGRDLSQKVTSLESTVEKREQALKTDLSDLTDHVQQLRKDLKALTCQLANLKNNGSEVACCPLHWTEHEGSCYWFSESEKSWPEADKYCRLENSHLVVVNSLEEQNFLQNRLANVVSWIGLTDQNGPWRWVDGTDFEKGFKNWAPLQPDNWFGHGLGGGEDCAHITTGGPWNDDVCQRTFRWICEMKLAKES
The experiment is described as follows: SPR, MGL1 immobilized on CM3 chip, steady state affinity fit at report point 20 s after end of injection.

The target of experiment [3] is mouse MGL2 (CLEC10A orthologous mouse receptor protein) (mouse). As to the kind of experiment: SPR, MGL2 immobilized on CM3 chip, steady state affinity fit at report point 20 s after end of injection.
Experiment [4] concerns the target T2, recombinant human CLEC10A, extracellular domain (R&D Systems) (human) (UniProt Q8IUN9).
T2 sequence (looked up): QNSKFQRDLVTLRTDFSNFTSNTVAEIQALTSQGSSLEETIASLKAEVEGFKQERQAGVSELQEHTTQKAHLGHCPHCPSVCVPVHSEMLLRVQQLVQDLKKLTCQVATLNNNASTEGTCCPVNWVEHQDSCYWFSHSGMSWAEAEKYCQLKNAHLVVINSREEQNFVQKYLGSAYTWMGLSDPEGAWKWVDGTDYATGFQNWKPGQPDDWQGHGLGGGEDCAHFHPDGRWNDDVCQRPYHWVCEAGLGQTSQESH
As to the kind of experiment: SPR, CLEC10A immobilized on CM3 chip, steady state affinity fit at report point 20 s after end of injection.

For the substance “purified monomeric human VWF (von Willebrand factor) (a stretch of the chain, sequence not shown) (ligand)”, the koff in experiment [1] was found to be 0.000381 s⁻¹. The values for the R50% (affinity constant) in experiment [2], in experiment [3] and in experiment [4] were 3.43 µM, 3 µM and 1.47 µM, respectively.
